Source: US9994626B2, “Stable polypeptides binding to human complement C5” (Swedish Orphan Biovitrum AB (publ), priority 2013, dated 2018)

Experiments:
[1] = Far UV circular dichroism, secondary structure content estimated with CDNN; format: physicochemical; conditions: 0.17 mg/ml in Pi buffer pH 7.0
Method: The CD spectra were recorded by a J-720 CD spectropolarimeter (Jasco, Japan). The samples were diluted to 0.17 mg/ml protein concentration using Pi buffer (5 mM Na—K—PO4, pH 7.0). A CD spectrum of Pi buffer was firstly recorded, then spectra were recorded for each of the samples and lastly for the Pi buffer again. […] The buffer spectrum was smoothened using the Savitzky-Golay procedure with convolution width of 25. The other spectra were smoothened according to the same procedure with a convolution width of 15. The smoothened buffer spectrum was then subtracted from each of the other smoothened spectra. […] The integrity of the secondary structure content was compared to the recombinantly produced PSI0257 (SEQ ID NO: 271).

[2] = molecular target: T1, human C5 (Homo sapiens, UniProt P01031); assay: Inhibition of hemolysis (classical complement pathway), antibody sensitized sheep erythrocytes; format: cell-based; conditions: compared to reference compound PSI0242
T1 construct: the β-chain corresponds to amino acid residues 19-673; the α-chain corresponds to amino acid residues 678-1676; purchased

[3] = molecular target: T2, recombinant human albumin (Homo sapiens, UniProt P02768); assay: Human albumin ELISA; format: binding; conditions: quantified against PSI0242 standard
T2 construct: purchased Novozymes
Description: For assessment of C5 binding compounds binding affinity for albumin, a human albumin ELISA utilizing recombinant human albumin (coating) and commercially available antibodies (primary and detecting) purchased from Novozymes, Affibody AB and DakoCytomation, respectively, was used. A method standard prepared from PSI0242 (SEQ ID NO:249), comprising a C5 binding polypeptide and an albumin binding domain of streptococcal protein G, was used for quantification of samples. A 96-well microplate was coated with recombinant human albumin. The plate was then washed with phosphate buffered saline containing 0.05 Tween 20 (PBST) and blocked for 1-2 hours with 1% casein in PBS. After a plate wash, the standard, method controls, control sample and test samples are added to the plate. After incubation for 2 hours, unbound material was removed by a wash. A goat Anti-AFFIBODY IgG (Affibody AB, cat no. 20.1000.01.0005) was added to the wells and the plate was incubated for 1.5 hours to allow binding to the bound C5 binding compounds. After a wash, rabbit anti-goat IgG HRP was allowed to bind to the goat antibodies for 1 h. After a final wash, the amount of bound HRP was detected by addition of TMB substrate, which was converted to a blue product by the enzyme. Addition of 1 M hydrochloric acid after 30 minutes stopped the reaction and the color of the well contents changed from blue to yellow. The absorbance at 450 nm was measured photometrically, using the absorbance at 650 nm as a reference wavelength. The color intensity was proportional to the amount of PSI0242 (SEQ ID NO:249) and the sample concentrations were determined from the standard curve.

[4] = 3 month stability test at 37° C., RPC; format: physicochemical; conditions: for 3 months, 37° C. Main peak (% of total protein): RPC
Description: The 2 weeks data from example 2 is included in Table VIII below to make the interpretation easier.

[5] = Accelerated stability study, 2 weeks at 37° C., SDS-PAGE and Reversed Phase HPLC (RPC); conditions: for stability when compared with PSI0242: 2 weeks at 37° C., conclusion in words; for Main peak (% of total protein): RPC after 2 weeks at 37° C.; for Main peak (% of total protein) / RPC post peaks / RPC prepeaks / SDS-PAGE bands: 25 mM NaP/125 mM NaCl pH 7.0; for 2 weeks, 37° C. Main peak (% of total protein): RPC, data from example 2; for RPC post peaks / RPC prepeaks / SDS-PAGE bands: after 2 weeks at 37° C.

B1: PSI0257: recombinant C5 binding polypeptide produced in accordance with the methods of Example 2 (protein)
chain: AEAKYAKEVLEAWDEIDRLPNLTIEQWLAFINKLDDDPSQSSELLSEAKKLNDSQAPKVDGS
modifications: Modified bacterial sequence
Antiparallel [1]: 3%
Beta-Turn [1]: 13%
Helix [1]: 63%
Parallel [1]: 3%
Rndm. Coil [1]: 13%

% of total protein content [3]: 85 % of total protein content
B2: PSI0378: C5 binding compound derived from PSI0242 with substitutions N52S, D53E and D60E (protein)
chain: AEAKYAKEVLEAWDEIDRLPNLTIEQWLAFINKLDDDPSQSSELLSEAKKLSESQAPKVEGSLAEAKEAANAELDSYGVSDFYKRLIDKAKTVEGVEALKDAILAALP
modifications: Modified bacterial sequence
inhibition of hemolysis, result in words [2]: comparable to the reference compound
3 months, 37° C. Main peak (% of total protein) [4]: 59 % of total protein
proportion of protein in the original form after 3 months at 37° C. versus PSI0242 after 2 weeks ([4]; result in words): higher proportion of protein in the original form
stability when compared with PSI0242 [5]: increased stability
Main peak (% of total protein) [5]: 89 % of total protein
2 weeks, 37° C. Main peak (% of total protein) [5]: 89 % of total protein
RPC post peaks [5]: 0
RPC prepeaks [5]: 0
SDS-PAGE bands [5]: 1

% of total protein content [3]: 103 % of total protein content
B3: PSI0242: known C5 binding compound of WO 2013/126006: polypeptide Z06175a (positions 1-60) with an albumin binding domain (protein)
chain: AEAKYAKEVLEAWDEIDRLPNLTIEQWLAFINKLDDDPSQSSELLSEAKKLNDSQAPKVDGSLAEAKEAANAELDSYGVSDFYKRLIDKAKTVEGVEALKDAILAALP
modifications: Modified bacterial sequence
Main peak (% of total protein) [5]: 57 % of total protein
RPC prepeaks [5]: 2
SDS-PAGE bands [5]: 2

% of total protein content [3]: 150 % of total protein content
B4: PSI0410: C5 binding compound with linking moiety KVEGS (X60=E) while X52X53 is ND (protein)
chain: AEAKYAKEVLEAWDEIDRLPNLTIEQWLAFINKLDDDPSQSSELLSEAKKLNDSQAPKVEGSLAEAKEAANAELDSYGVSDFYKRLIDKAKTVEGVEALKDAILAALP
modifications: Modified bacterial sequence
inhibition of hemolysis, result in words [2]: comparable to the reference compound
3 months, 37° C. Main peak (% of total protein) [4]: 16 % of total protein
stability when compared with PSI0242 [5]: increased stability
Main peak (% of total protein) [5]: 72 % of total protein
2 weeks, 37° C. Main peak (% of total protein) [5]: 72 % of total protein
RPC post peaks [5]: 1
RPC prepeaks [5]: 1
SDS-PAGE bands [5]: 1

One block for each molecule: values may come before it.
